Assay results reported in the supplement of paper PMC12645437, “Orthogonal IMiD-Degron Pairs Induce Selective Protein Degradation in Cells” (ACS Chemical Biology, 2025).
Some of the results follow.

target: no compound (DMSO); test: log2 fold change of degron read counts, EGFP-low vs EGFP+ sorted cells; higher = lower degron-EGFP level without compound (poor expression or instability); conditions: compound: DMSO control; 18 h
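Further: jurkat cells carrying a lentiviral library of mutant zinc finger degrons fused to EGFP plus mCherry, mCherry+ cells FACS sorted, degron abundance counted by next-generation sequencing.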

Q: With FECPICGADFTQKGNLLRHIKL as the sequence, how does the “log2 fold change of degron read counts” value read?
A: The value was -0.818.

Q: With FQCPICGAWFTQKGNLLRHIKL as the sequence, how does the “log2 fold change of degron read counts” value read?
A: The value was 0.253.

Q: With FFCEICGHPFTQKGNLLRHIKL as the sequence, how does the “log2 fold change of degron read counts” value read?
A: The value was 0.248.

Q: With FLCPVCGAAFTQKGNLLRHIKL as the sequence, how does the “log2 fold change of degron read counts” value read?
A: The value was -0.254.

Q: With FRCDVCGASFTQKGNLLRHIKL as the sequence, how does the “log2 fold change of degron read counts” value read?
A: The value was -2.21.

Q: FKCEICGRKFTQKGNLLRHIKL was tested. Which “log2 fold change of degron read counts” value did it give?
A: Its value is -1.29.

Q: With FMCEICGAHFTQKGNLLRHIKL as the sequence, how does the “log2 fold change of degron read counts” value read?
A: Its value is -1.13.

Q: FVCPICGHPFTQKGNLLRHIKL was tested. Which “log2 fold change of degron read counts” value did it give?
A: The value was 0.183.

Q: For FECEVCGAWFTQKGNLLRHIKL, which “log2 fold change of degron read counts” value is on record?
A: Its value is -1.06.

Q: With FGCNVCGAKFTQKGNLLRHIKL as the sequence, how does the “log2 fold change of degron read counts” value read?
A: Its value is -0.84.

Q: For FQCEVCGAKFTQKGNLLRHIKL, which “log2 fold change of degron read counts” value is on record?
A: Its value is -1.53.

Q: Which “log2 fold change of degron read counts” value does the source give for LDCNQCGFQCTQKGNLLRHIKL here?
A: The value was 0.374.

Q: How did the “log2 fold change of degron read counts” value turn out when LDCEICGFQCTQKGNLLRHIKL was run?
A: The value was -0.328.

Q: FDCPICGRAFTQKGNLLRHIKL was tested. Which “log2 fold change of degron read counts” value did it give?
A: The value was -0.629.

Q: With FACDQCGASFTQKGNLLRHIKL as the sequence, how does the “log2 fold change of degron read counts” value read?
A: The value was -2.27.

Q: FMCEICGRAFTQKGNLLRHIKL was tested. Which “log2 fold change of degron read counts” value did it give?
A: The value was -1.18.

Q: How did the “log2 fold change of degron read counts” value turn out when FWCNQCGRAFTQKGNLLRHIKL was run?
A: The value was 0.488.

Q: How did the “log2 fold change of degron read counts” value turn out when FRCPICGRIFTQKGNLLRHIKL was run?
A: The value was 0.673.

Q: FVCPQCGAWFTQKGNLLRHIKL was tested. Which “log2 fold change of degron read counts” value did it give?
A: Its value is 0.66.

Q: How did the “log2 fold change of degron read counts” value turn out when FHCNVCGACFTQKGNLLRHIKL was run?
A: The value was -0.163.

Q: How did the “log2 fold change of degron read counts” value turn out when FICEQCGAVFTQKGNLLRHIKL was run?
A: The value was -1.24.

Q: How did the “log2 fold change of degron read counts” value turn out when FACNQCGHAFTQKGNLLRHIKL was run?
A: Its value is -0.209.

Q: Which “log2 fold change of degron read counts” value does the source give for FICPQCGANFTQKGNLLRHIKL here?
A: Its value is -0.768.

Q: How did the “log2 fold change of degron read counts” value turn out when LSCNQCGFNCTQKGNLLRHIKL was run?
A: Its value is 0.439.

Q: For FNCEICGHQFTQKGNLLRHIKL, which “log2 fold change of degron read counts” value is on record?
A: Its value is -1.

Q: For FGCPICGHIFTQKGNLLRHIKL, which “log2 fold change of degron read counts” value is on record?
A: Its value is 0.754.

Q: With LNCPICGFDCTQKGNLLRHIKL as the sequence, how does the “log2 fold change of degron read counts” value read?
A: Its value is 0.668.

Q: For FDCPICGAIFTQKGNLLRHIKL, which “log2 fold change of degron read counts” value is on record?
A: The value was -0.28.

Q: How did the “log2 fold change of degron read counts” value turn out when LQCNQCGFDCTQKGNLLRHIKL was run?
A: Its value is -0.274.

Q: With FQCEVCGAPFTQKGNLLRHIKL as the sequence, how does the “log2 fold change of degron read counts” value read?
A: The value was -0.704.

Q: With LMCNQCGFACTQKGNLLRHIKL as the sequence, how does the “log2 fold change of degron read counts” value read?
A: Its value is 0.636.

Q: How did the “log2 fold change of degron read counts” value turn out when FNCPICGHWFTQKGNLLRHIKL was run?
A: Its value is 0.658.

Q: For FRCEVCGAYFTQKGNLLRHIKL, which “log2 fold change of degron read counts” value is on record?
A: Its value is -0.773.

Q: For FWCDICGAIFTQKGNLLRHIKL, which “log2 fold change of degron read counts” value is on record?
A: The value was 1.29.

Q: How did the “log2 fold change of degron read counts” value turn out when FCCSVCGHEFTQKGNLLRHIKL was run?
A: The value was -1.2.

Q: Which “log2 fold change of degron read counts” value does the source give for FGCEICGANFTQKGNLLRHIKL here?
A: The value was -1.03.

Q: How did the “log2 fold change of degron read counts” value turn out when FLCPVCGASFTQKGNLLRHIKL was run?
A: The value was -0.278.

Q: How did the “log2 fold change of degron read counts” value turn out when FACPVCGAWFTQKGNLLRHIKL was run?
A: Its value is 0.68.

Q: With FDCSVCGHDFTQKGNLLRHIKL as the sequence, how does the “log2 fold change of degron read counts” value read?
A: Its value is 0.43.

Q: For FECDQCGADFTQKGNLLRHIKL, which “log2 fold change of degron read counts” value is on record?
A: Its value is -2.59.

Q: With FNCDICGANFTQKGNLLRHIKL as the sequence, how does the “log2 fold change of degron read counts” value read?
A: Its value is -1.85.

Q: Which “log2 fold change of degron read counts” value does the source give for FWCDICGATFTQKGNLLRHIKL here?
A: The value was -0.637.

Q: LHCPICGFRCTQKGNLLRHIKL was tested. Which “log2 fold change of degron read counts” value did it give?
A: The value was 0.644.

Q: How did the “log2 fold change of degron read counts” value turn out when FYCEQCGALFTQKGNLLRHIKL was run?
A: The value was -0.893.

Q: How did the “log2 fold change of degron read counts” value turn out when FKCPICGHFFTQKGNLLRHIKL was run?
A: The value was -0.339.

Q: How did the “log2 fold change of degron read counts” value turn out when FSCPICGRAFTQKGNLLRHIKL was run?
A: The value was -0.307.

Q: How did the “log2 fold change of degron read counts” value turn out when FVCEICGRQFTQKGNLLRHIKL was run?
A: Its value is -1.87.

Q: For FKCEVCGAMFTQKGNLLRHIKL, which “log2 fold change of degron read counts” value is on record?
A: The value was -1.71.

Q: For FECSVCGHNFTQKGNLLRHIKL, which “log2 fold change of degron read counts” value is on record?
A: Its value is -1.33.

Q: For FMCEQCGAQFTQKGNLLRHIKL, which “log2 fold change of degron read counts” value is on record?
A: Its value is -1.39.
